# From the supplement of paper PMC3334620
# The full ranking holds about 33,000 sequences; the median of “E-score (-0.5 to 0.5)” is about -0.01, and the highest 2% start at about 0.26. The list shows a part of the results.
# Biological target: Ste12 (UniProt P13574)
# Test: PBM E-score (8-mer binding enrichment) (E-score (-0.5 to 0.5)); higher = stronger / more preferred TF binding; most listed sequences are background and not binding sites
# Settings: protein concentration: 200 nM; construct: GST-DNA-binding domain
# How it was run: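 Yeast transcription factors carrying a GST tag, as full-length proteins or DNA-binding domains, were produced by PURExpress in vitro transcription/translation. About 100-200 nM protein was applied to universal all-10-mer Agilent arrays, double-stranded by primer extension on fresh or once-stripped slides. Bound protein was detected with fluorescent anti-GST, and scans were normalised with masliner. The Universal PBM Analysis Suite gave each ungapped eight-base word, pooled with its reverse complement, an E-score, a modified Wilcoxon-Mann-Whitney statistic.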
row,Sequence,PBM E-score
1,ATCGTAAA,0.186
2,GGCGTGTA,-0.181
3,ATGGTCCC,-0.197
4,CGGTACTC,-0.195
5,GACATTGC,-0.147
6,ATATTTAA,0.347
7,CACCTTTC,0.00448
8,TCACCCGA,0.158
9,AGAGCAAT,-0.107
10,AAGAGCGG,0.121
11,CTAAGTAC,-0.235
12,AAGAGGAC,-0.264
13,CACATCAC,0.0988
14,AGCTGATA,0.0329
15,AAAAAGAC,0.153
16,TCAGACGA,-0.0271
17,CACTAAGA,0.0208
18,CGGGCCAA,-0.052
19,ATCCTGTC,0.0934
20,ATAGCTCA,-0.0443
21,AACATAGT,0.0485
22,GCATAAAC,0.261
23,ACTCGGTC,-0.134
24,TAGACTCA,-0.187
25,ACGCTTAA,-0.0288

row,Sequence,PBM E-score
1,ACACCAGC,-0.101
2,GCGCAAGC,0.00596
3,GGGTAAGA,-0.0186
4,AACTCGCG,0.195
5,CTAATACC,-0.0758
6,GCCTACTA,-0.00368
7,ATTAGTTG,0.0922
8,ACTAGTCC,-0.104
9,CGCTTTGA,0.0516
10,AGGGGACC,-0.215
11,ATAATAAA,0.255
12,TACCATCA,-0.133
13,ATCCTGAA,0.151
14,AGACATCG,-0.182
15,CGATTACA,-0.139
16,ATGCCAAA,-0.0117
17,CGGTAAAC,-0.0353
18,AAGGTGGA,0.0581
19,AATGGCGC,-0.103
20,ACCGGTAT,0.0132
21,CGACGTAA,-0.0256
22,GTCCCCGA,-0.0338
23,CGACTCAA,0.0158
24,ACTGCTAT,-0.00787
25,CACAGCAA,0.108

row,Sequence,PBM E-score
1,ACTCTAGG,-0.0955
2,GAACTATA,0.203
3,GTACGAAA,0.182
4,ACGCGCGA,-0.00668
5,AACTCATA,0.162
6,AGTTATAT,0.207
7,CCGAGAGA,0.0747
8,CGGACAGC,-0.158
9,GTTGCTCA,0.00037
10,GAGTTTCC,-0.00944
11,CGGGACAG,0.0692
12,AGCGCCAA,-0.12
13,GTTACCAA,0.118
14,ACAGAGTC,-0.035
15,AAAGAGCA,0.0324
16,ACTCACCT,-0.208
17,AGTATTAG,0.173
18,CGGTGACC,-0.247
19,AGCAACCA,0.0763
20,AAATCGGC,0.101
21,CTGCCCGA,0.0365
22,AAAAACCT,0.263
23,CGAGTCTA,-0.101
24,TCAAATCA,0.158
25,CAAGGGGA,0.0228

row,Sequence,PBM E-score
1,AAAGGGTA,-0.045
2,AAGCGCCC,0.0333
3,CCATCACA,-0.177
4,CACGGATG,-0.171
5,AACTGATG,0.122
6,GAACATTA,0.142
7,ATTGCCTG,0.0807
8,AGGGCCTG,-0.00927
9,GGGCCACC,0.0264
10,CCCCACCC,0.361
11,CCCTACGC,-0.251
12,CTTCAGAA,0.19
13,GCCTGAAC,-0.209
14,GCTATAAC,-0.0199
15,AGGAAGGC,-0.0323
16,GTGTTTCA,0.489
17,AAAGGAAA,0.205
18,ATGTAACA,0.288
19,CTCGGCGA,-0.0728
20,ACCTTCGG,-0.0222
21,CCATATTC,0.061
22,ATCAGCCC,-0.0153
23,CAATGTCC,-0.0701
24,GGCTCGAC,-0.191
25,GCCTCACC,-0.0151

row,Sequence,PBM E-score
1,CAGTATGC,-0.239
2,AGTGTAAA,0.2
3,TATCTCGA,0.0352
4,CGCTTGGA,-0.227
5,AGAGGCCT,-0.233
6,AAGGTTGC,-0.00125
7,ATCGATGG,0.0234
8,CGGTATAC,-0.108
9,GGTATGCA,-0.298
10,GTGCCAGA,-0.0442
11,CGGGGGGC,-0.0839
12,GGGCCCAA,-0.121
13,CACGTGTC,-0.0718
14,GGGATTGA,-0.0715
15,ACTCTAAT,-0.0135
16,GATCCTCC,-0.0451
17,GCAGCAAA,0.0116
18,ACTCCAAC,0.00044
19,AGTTTTGA,0.148
20,AAATCTAA,0.132
21,ACATCCGG,-0.0408
22,GCTTGGGA,-0.164
23,CGGACGCC,-0.0656
24,ATCAGCAG,0.0355
25,ACAGCGTC,-0.124

row,Sequence,PBM E-score
1,AGGAGCCT,-0.125
2,CACTGGAG,-0.249
3,AATGGCCT,-0.00519
4,GGATGGAA,-0.0741
5,GGAATAAA,0.0634
6,CGGACCTA,0.0577
7,GGGTCCAA,-0.0826
8,ATCATAAA,0.0612
9,TAAGTACA,0.0047
10,CCAAGTTA,-0.0382
11,TTCCGAAA,0.264
12,ATTTAATC,0.209
13,CAGGAATA,0.00205
14,GGTCCGTA,-0.151
15,ACACTCCC,-0.0365
16,CATTTTCA,0.273
17,AACTGGGT,-0.118
18,ACGATTTG,0.107
19,CTATTAGC,0.0448
20,AAATGCCC,-0.188
21,ACCTTCCG,0.0145
22,CGTCTGAA,0.0774
23,CTGTACCC,-0.0994
24,GGTAAAGA,0.15
25,AATGAGTA,0.15

row,Sequence,PBM E-score
1,GCGGTGCA,-0.13
2,ATAGCCAA,0.0295
3,ATTAAATG,0.19
4,AATTTTAA,0.318
5,GGTTCGCA,-0.0263
6,CTGGCTTA,-0.0812
7,ACCGAGCG,0.0148
8,CTAAAACC,0.192
9,CGGCCTAG,-0.0703
10,ACGTACGT,-0.134
11,ACTACTCA,-0.0467
12,AAAGGCAC,0.0435
13,CGCGTCGA,0.0888
14,ACAGCACG,-0.136
15,AACACCAA,0.0389
16,AGTACAAG,-0.00883
17,ATACAACG,0.0195
18,ATCATTTC,0.171
19,CAAGCCAA,-0.0322
20,GAGTAGCA,-0.128
21,CTTAATTA,0.208
22,CAGACTAC,-0.246
23,CAACCTTA,-0.0367
24,ATAGACTC,-0.133
25,CGTTCCAC,-0.0852

row,Sequence,PBM E-score
1,AGGCCTGG,-0.188
2,ACACAGCG,0.121
3,TAGTCCAA,-0.142
4,TCCGTGCA,0.0424
5,GTGATGGA,-0.0522
6,AGTACTGG,-0.0665
7,ACATCGTA,-0.0243
8,ATTAAAGA,0.0703
9,TCGTTCCA,-0.0164
10,ATGTTTGC,0.0377
11,ACATACGA,0.0743
12,GCAGTATA,0.0915
13,GAGTACGA,-0.112
14,GCCATGGA,-0.091
15,TCGGCTCA,-0.202
16,ACCTGGCT,-0.125
17,AACATGAC,0.103
18,CGTCGCGA,0.125
19,GTCGCTTA,-0.193
20,GTGCCCTA,-0.173
21,AATCCCAG,-0.0638
22,CTAGCGAC,-0.0932
23,TATCGGAA,0.171
24,AGTCCATC,-0.306
25,GATGCACC,-0.207

row,Sequence,PBM E-score
1,AGGACTAG,-0.143
2,CTAACCAC,0.0504
3,ACTGCTTC,-0.0707
4,GATTGCCC,-0.235
5,CGTTTGTC,0.00601
6,GTGGACCA,-0.146
7,AATGTTCA,0.0604
8,CAAGAAGG,0.168
9,CGTCAAGC,-0.157
10,GTCCGTGA,-0.207
11,CGGGGGCC,-0.188
12,CACTCTGC,-0.0761
13,AGACTGAT,0.0502
14,GGTCGGTA,0.0205
15,AGGGAAGC,-0.0834
16,TCGAGAAA,0.0795
17,AGTCAGGA,-0.17
18,CTGCCAAG,-0.247
19,AGAAAAAG,0.0364
